Reference: patent publication US12472166B2, “Inhibition of mycobacterial type VII secretion” (priority 2019, dated 2025)

How the values were obtained:
[1] = 30 minutes at 37° C.
Procedure: To assess the metabolic stability of the drugs in the human body, selected compounds I-1, I-3, I-5, I-33, I-35, I-36 and I-37 were incubated with human liver microsomes for 30 minutes at 37° C., after which the remaining amount of compound was quantitatively determined by LC-MS (Table 3).
Each test compound (15 μM; from stock solutions of 5 mM in acetonitrile) was mixed with 0.5 mg/mL human liver microsome (Xenotech) in reaction buffer (100 μM NADPH, 10 μM glucose 6-phosphate, 0.5 U/mL glucose 6-phosphate dehydrogenase, 3.3 mM MgCl2 and 5 mM EDTA, 100 mM potassium phosphate buffer, pH 7.4. The resulting mixture was incubated at 37° C. After 30 minutes, the samples were cooled on ice, centrifuged and the supernatant was analyzed by LC-MS (Column: Luna 5 μm C18, 100 Å, 150×4.6 mm; MeCN/H2O, 0.1% formic acid; Table 3). Calculations and the experiment set-up are based on Kerns, E. H. et al., Drug-like Properties: Concepts, Structure Design and Methods; from ADME to Toxicity Optimization, Academic Press, 2008. The intrinsic clearance values are calculated based on the teachings in Obach, R. S., Drug Metabolism and Disposition 1999, 27(110, 1350-1359.

[2] = system: M. marinum WT bacteria expressing rfp; conditions: in vivo
Procedure: To assess anti-bacterial activity of the compounds in an animal model, zebra-fish embryos were infected by injection of WT M. marinum into the cardinal vein. The bacteria express rfp, which enables the quantification of infection in vivo by measuring red fluorescence. After injection of the bacteria into the fish, the infection was allowed to establish for 20 h. Then, the test compounds or DMSO control were added for three days before the infection was quantified by measuring fluorescence in each fish. […] FIG. 8: Zebra fish embryo infection experiments. Dechorionated zebra fish embryos were one day post fertilization infected by microinjection into the cardinal vein with 70 M. marinum WT bacteria expressing rfp. 20 h after infection, the compounds were added to the fish water at the indicated concentrations. After 4 days post infection the fish were imaged on a fluorescent microscope (A) and red pixels were quantified (B). As control served non-treated fish and non-infected fish. The fish water of all groups contained equal amounts of DMSO. Each data point represents a single fish. […] Statistical analysis was determined by ANOVA testing by comparing each group to the non-treated group of fish. p>0.05, not significant, not indicated. p<0.05=*, p<0.01=**, p<0.001=***.

| Structure (SMILES) | conversion by the human liver enzymes [1] | concentration from which significant reduction of infection starts [2] | reduction of infection as compared to DMSO treated fish [2] |
| --- | --- | --- | --- |
| CCCNC(=O)CSc1nc(-c2ccccc2)ns1 [Compound I-1] | relatively slowly converted | 1 µM |  |
| CCCNC(=O)CSc1nc(-c2ccc(OC)cc2)ns1 [Compound I-3] | exception | 1 µM |  |
| O=C(CSc1nc(-c2ccccc2)ns1)NC1CCCC1 [Compound I-5] | relatively slowly converted | 1 µM |  |
| COc1ccc(-c2nsc(SCC(=O)NC3CCCC3)n2)cc1 [Compound I-12] |  |  | 50 fold |
| O=C(COc1nc(-c2ccccc2)ns1)NC1CCCC1 [Compound I-33] | relatively slowly converted |  |  |
| O=C(CSc1nc(-c2ccccc2)ns1)NCCC(F)(F)F [Compound I-35] | relatively slowly converted |  |  |
| CCCNC(=O)CSc1nc(-c2ccc(Cl)cc2)ns1 [Compound I-36] | relatively slowly converted |  |  |
| O=C(CSc1nc(-c2ccc(Cl)cc2)ns1)NCCC(F)(F)F [Compound I-37] | relatively slowly converted |  |  |
